{"source": "the supplement of paper PMC8728848", "assay_in_all_cases": "glycan array binding signal (z-score within array); higher = stronger binding", "details_in_all_cases": "glycan notation: IUPAC condensed, linker removed", "key": {"[1]": {"molecular_target": "Fuc(a1-2)Gal6S(b1-3)GlcNAc", "method_in_brief": "(§1)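 From the Consortium for Functional Glycomics database, 3228 arrays were curated, keeping only those whose protein sequence was available. Binding is given as a within-array Z-score averaged across arrays sharing a protein sequence and across linkers. Negative Z-scores can be read as non-binding.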"}, "[2]": {"molecular_target": "Fuc(a1-2)Gal6S(b1-3)GlcNAc6S", "method_in_brief": "as §1"}, "Fuc(a1-2)Gal6S(b1-4)Glc": {"molecular_target": "Fuc(a1-2)Gal6S(b1-4)Glc", "method_in_brief": "as §1"}, "[3]": {"molecular_target": "Fuc(a1-2)Gal6S(b1-4)Glc6S", "method_in_brief": "as §1"}, "Fuc(a1-2)[Gal(a1-3)]Gal": {"molecular_target": "Fuc(a1-2)[Gal(a1-3)]Gal", "method_in_brief": "as §1"}, "[4]": {"molecular_target": "Fuc(a1-2)[Gal(a1-3)]Gal(b1-3)GalNAc", "method_in_brief": "as §1"}, "[5]": {"molecular_target": "Fuc(a1-2)[Gal(a1-3)]Gal(b1-3)GalNAc(b1-3)Gal(a1-4)Gal(b1-4)Glc", "method_in_brief": "as §1"}, "[6]": {"molecular_target": "Fuc(a1-2)[Gal(a1-3)]Gal(b1-3)GlcNAc", "method_in_brief": "as §1"}, "[7]": {"molecular_target": "Fuc(a1-2)[Gal(a1-3)]Gal(b1-3)GlcNAc(b1-2)Man(a1-3)[Fuc(a1-2)[Gal(a1-3)]Gal(b1-3)GlcNAc(b1-2)Man(a1-6)]Man(b1-4)GlcNAc(b1-4)GlcNAc", "method_in_brief": "as §1"}, "[8]": {"molecular_target": "Fuc(a1-2)[Gal(a1-3)]Gal(b1-3)GlcNAc(b1-2)Man(a1-3)[Fuc(a1-2)[Gal(a1-3)]Gal(b1-3)GlcNAc(b1-2)Man(a1-6)]Man(b1-4)GlcNAc(b1-4)[Fuc(a1-6)]GlcNAc", "method_in_brief": "as §1"}, "[9]": {"molecular_target": "Fuc(a1-2)[Gal(a1-3)]Gal(b1-3)GlcNAc(b1-3)GalNAc", "method_in_brief": "as §1"}, "[10]": {"molecular_target": "Fuc(a1-2)[Gal(a1-3)]Gal(b1-3)GlcNAc(b1-6)GalNAc", "method_in_brief": "as §1"}, "[11]": {"molecular_target": "Fuc(a1-2)[Gal(a1-3)]Gal(b1-4)Glc", "method_in_brief": "as §1"}, "[12]": {"molecular_target": "Fuc(a1-2)[Gal(a1-3)]Gal(b1-4)GlcNAc", "method_in_brief": "as §1"}, "[13]": {"molecular_target": "Fuc(a1-2)[Gal(a1-3)]Gal(b1-4)GlcNAc(b1-2)Man", "method_in_brief": "as §1"}, "[14]": {"molecular_target": "Fuc(a1-2)[Gal(a1-3)]Gal(b1-4)GlcNAc(b1-2)Man(a1-3)[Fuc(a1-2)[Gal(a1-3)]Gal(b1-4)GlcNAc(b1-2)Man(a1-6)]Man(b1-4)GlcNAc(b1-4)GlcNAc", "method_in_brief": "as §1"}, "[15]": {"molecular_target": "Fuc(a1-2)[Gal(a1-3)]Gal(b1-4)GlcNAc(b1-2)Man(a1-3)[Fuc(a1-2)[Gal(a1-3)]Gal(b1-4)GlcNAc(b1-2)Man(a1-6)]Man(b1-4)GlcNAc(b1-4)[Fuc(a1-6)]GlcNAc", "method_in_brief": "as §1"}, "[16]": {"molecular_target": "Fuc(a1-2)[Gal(a1-3)]Gal(b1-4)GlcNAc(b1-3)GalNAc", "method_in_brief": "as §1"}, "[17]": {"molecular_target": "Fuc(a1-2)[Gal(a1-3)]Gal(b1-4)GlcNAc(b1-3)[Fuc(a1-2)[Gal(a1-3)]Gal(b1-4)GlcNAc(b1-6)]GalNAc", "method_in_brief": "as §1"}, "[18]": {"molecular_target": "Fuc(a1-2)[Gal(a1-3)]Gal(b1-4)GlcNAc(b1-6)GalNAc", "method_in_brief": "as §1"}, "[19]": {"molecular_target": "Fuc(a1-2)[Gal(a1-3)]Gal(b1-4)[Fuc(a1-3)]Glc", "method_in_brief": "as §1"}, "[20]": {"molecular_target": "Fuc(a1-2)[Gal(a1-3)]Gal(b1-4)[Fuc(a1-3)]GlcNAc", "method_in_brief": "as §1"}, "[21]": {"molecular_target": "Fuc(a1-2)[Gal(a1-3)]Gal(b1-4)[Fuc(a1-3)]GlcNAc(b1-3)GalNAc", "method_in_brief": "as §1"}, "[22]": {"molecular_target": "Fuc(a1-2)[Gal(a1-4)]Gal(b1-4)GlcNAc", "method_in_brief": "as §1"}, "[23]": {"molecular_target": "Fuc(a1-2)[GalNAc(a1-3)]Gal", "method_in_brief": "as §1"}, "[24]": {"molecular_target": "Fuc(a1-2)[GalNAc(a1-3)]Gal(b1-3)GalNAc(a1-3)[Fuc(a1-2)]Gal(b1-4)GlcNAc", "method_in_brief": "as §1"}, "[25]": {"molecular_target": "Fuc(a1-2)[GalNAc(a1-3)]Gal(b1-3)GalNAc(b1-3)Gal(a1-4)Gal(b1-4)Glc", "method_in_brief": "as §1"}, "[26]": {"molecular_target": "Fuc(a1-2)[GalNAc(a1-3)]Gal(b1-3)GlcNAc", "method_in_brief": "as §1"}, "[27]": {"molecular_target": "Fuc(a1-2)[GalNAc(a1-3)]Gal(b1-3)GlcNAc(b1-2)Man(a1-3)[Fuc(a1-2)[GalNAc(a1-3)]Gal(b1-3)GlcNAc(b1-2)Man(a1-6)]Man(b1-4)GlcNAc(b1-4)GlcNAc", "method_in_brief": "as §1"}, "[28]": {"molecular_target": "Fuc(a1-2)[GalNAc(a1-3)]Gal(b1-3)GlcNAc(b1-2)Man(a1-3)[Fuc(a1-2)[GalNAc(a1-3)]Gal(b1-3)GlcNAc(b1-2)Man(a1-6)]Man(b1-4)GlcNAc(b1-4)[Fuc(a1-6)]GlcNAc", "method_in_brief": "as §1"}, "[29]": {"molecular_target": "Fuc(a1-2)[GalNAc(a1-3)]Gal(b1-3)GlcNAc(b1-3)GalNAc", "method_in_brief": "as §1"}, "[30]": {"molecular_target": "Fuc(a1-2)[GalNAc(a1-3)]Gal(b1-3)GlcNAc(b1-6)GalNAc", "method_in_brief": "as §1"}, "[31]": {"molecular_target": "Fuc(a1-2)[GalNAc(a1-3)]Gal(b1-4)Glc", "method_in_brief": "as §1"}, "[32]": {"molecular_target": "Fuc(a1-2)[GalNAc(a1-3)]Gal(b1-4)GlcNAc", "method_in_brief": "as §1"}, "[33]": {"molecular_target": "Fuc(a1-2)[GalNAc(a1-3)]Gal(b1-4)GlcNAc(b1-2)Man", "method_in_brief": "as §1"}, "[34]": {"molecular_target": "Fuc(a1-2)[GalNAc(a1-3)]Gal(b1-4)GlcNAc(b1-2)Man(a1-3)[Fuc(a1-2)[GalNAc(a1-3)]Gal(b1-4)GlcNAc(b1-2)Man(a1-6)]Man(b1-4)GlcNAc(b1-4)GlcNAc", "method_in_brief": "as §1"}, "[35]": {"molecular_target": "Fuc(a1-2)[GalNAc(a1-3)]Gal(b1-4)GlcNAc(b1-2)Man(a1-3)[Fuc(a1-2)[GalNAc(a1-3)]Gal(b1-4)GlcNAc(b1-2)Man(a1-6)]Man(b1-4)GlcNAc(b1-4)[Fuc(a1-6)]GlcNAc", "method_in_brief": "as §1"}, "[36]": {"molecular_target": "Fuc(a1-2)[GalNAc(a1-3)]Gal(b1-4)GlcNAc(b1-3)Gal(b1-4)GlcNAc", "method_in_brief": "as §1"}, "[37]": {"molecular_target": "Fuc(a1-2)[GalNAc(a1-3)]Gal(b1-4)GlcNAc(b1-3)Gal(b1-4)GlcNAc(b1-3)Gal(b1-4)GlcNAc", "method_in_brief": "as §1"}, "[38]": {"molecular_target": "Fuc(a1-2)[GalNAc(a1-3)]Gal(b1-4)GlcNAc(b1-3)GalNAc", "method_in_brief": "as §1"}, "[39]": {"molecular_target": "Fuc(a1-2)[GalNAc(a1-3)]Gal(b1-4)GlcNAc(b1-3)[Fuc(a1-2)[GalNAc(a1-3)]Gal(b1-4)GlcNAc(b1-6)]GalNAc", "method_in_brief": "as §1"}, "[40]": {"molecular_target": "Fuc(a1-2)[GalNAc(a1-3)]Gal(b1-4)GlcNAc(b1-6)GalNAc", "method_in_brief": "as §1"}, "[41]": {"molecular_target": "Fuc(a1-2)[GalNAc(a1-3)]Gal(b1-4)[Fuc(a1-3)]GlcNAc", "method_in_brief": "as §1"}, "[42]": {"molecular_target": "Fuc(a1-2)[GalNAc(a1-3)]Gal(b1-4)[Fuc(a1-3)]GlcNAc(b1-3)GalNAc", "method_in_brief": "as §1"}, "[43]": {"molecular_target": "Fuc(a1-2)[GalNAc(a1-4)]Gal(b1-4)GlcNAc", "method_in_brief": "as §1"}}, "note": "This is one part of the list."}
{"binder": "CFEM-SCL (Saccharomyces cerevisiae), O13547 (protein) MRATTLLSSVVSLALLSKEVLATPPACLLACVAQVGKSSSTCDSLNQVTCYCEHENSAVKKCLDSICPNNDADAAYSAFKSSCSEQNASLGD", "values": [{"measurement": "glycan array binding signal (z-score)", "setting": "[1]", "result": -0.235}, {"measurement": "glycan array binding signal (z-score)", "setting": "[2]", "result": 0.256}, {"measurement": "glycan array binding signal (z-score)", "setting": "Fuc(a1-2)Gal6S(b1-4)Glc", "result": -0.174}, {"measurement": "glycan array binding signal (z-score)", "setting": "[3]", "result": -0.172}, {"measurement": "glycan array binding signal (z-score)", "setting": "Fuc(a1-2)[Gal(a1-3)]Gal", "result": -0.069}, {"measurement": "glycan array binding signal (z-score)", "setting": "[4]", "result": -0.182}, {"measurement": "glycan array binding signal (z-score)", "setting": "[5]", "result": -0.278}, {"measurement": "glycan array binding signal (z-score)", "setting": "[6]", "result": -0.107}, {"measurement": "glycan array binding signal (z-score)", "setting": "[7]", "result": -0.318}, {"measurement": "glycan array binding signal (z-score)", "setting": "[8]", "result": -0.236}, {"measurement": "glycan array binding signal (z-score)", "setting": "[9]", "result": 0.2}, {"measurement": "glycan array binding signal (z-score)", "setting": "[10]", "result": -0.325}, {"measurement": "glycan array binding signal (z-score)", "setting": "[11]", "result": -0.165}, {"measurement": "glycan array binding signal (z-score)", "setting": "[12]", "result": -0.122}, {"measurement": "glycan array binding signal (z-score)", "setting": "[13]", "result": -0.307}, {"measurement": "glycan array binding signal (z-score)", "setting": "[14]", "result": -0.342}, {"measurement": "glycan array binding signal (z-score)", "setting": "[15]", "result": -0.34}, {"measurement": "glycan array binding signal (z-score)", "setting": "[16]", "result": -0.207}, {"measurement": "glycan array binding signal (z-score)", "setting": "[17]", "result": -0.104}, {"measurement": "glycan array binding signal (z-score)", "setting": "[18]", "result": -0.291}, {"measurement": "glycan array binding signal (z-score)", "setting": "[19]", "result": -0.287}, {"measurement": "glycan array binding signal (z-score)", "setting": "[20]", "result": 0.815}, {"measurement": "glycan array binding signal (z-score)", "setting": "[21]", "result": 0.411}, {"measurement": "glycan array binding signal (z-score)", "setting": "[22]", "result": -0.053}, {"measurement": "glycan array binding signal (z-score)", "setting": "[23]", "result": -0.208}, {"measurement": "glycan array binding signal (z-score)", "setting": "[24]", "result": -0.263}, {"measurement": "glycan array binding signal (z-score)", "setting": "[25]", "result": -0.32}, {"measurement": "glycan array binding signal (z-score)", "setting": "[26]", "result": -0.218}, {"measurement": "glycan array binding signal (z-score)", "setting": "[27]", "result": -0.391}, {"measurement": "glycan array binding signal (z-score)", "setting": "[28]", "result": -0.316}, {"measurement": "glycan array binding signal (z-score)", "setting": "[29]", "result": 1.01}, {"measurement": "glycan array binding signal (z-score)", "setting": "[30]", "result": -0.289}, {"measurement": "glycan array binding signal (z-score)", "setting": "[31]", "result": -0.233}, {"measurement": "glycan array binding signal (z-score)", "setting": "[32]", "result": -0.256}, {"measurement": "glycan array binding signal (z-score)", "setting": "[33]", "result": -0.31}, {"measurement": "glycan array binding signal (z-score)", "setting": "[34]", "result": -0.291}, {"measurement": "glycan array binding signal (z-score)", "setting": "[35]", "result": -0.326}, {"measurement": "glycan array binding signal (z-score)", "setting": "[36]", "result": -0.339}, {"measurement": "glycan array binding signal (z-score)", "setting": "[37]", "result": -0.204}, {"measurement": "glycan array binding signal (z-score)", "setting": "[38]", "result": -0.26}, {"measurement": "glycan array binding signal (z-score)", "setting": "[39]", "result": -0.325}, {"measurement": "glycan array binding signal (z-score)", "setting": "[40]", "result": -0.22}, {"measurement": "glycan array binding signal (z-score)", "setting": "[41]", "result": 0.231}, {"measurement": "glycan array binding signal (z-score)", "setting": "[42]", "result": 2.67}, {"measurement": "glycan array binding signal (z-score)", "setting": "[43]", "result": -0.314}]}
